The campaign covered roughly 310,000 compounds. About 14,000 (4.5%) showed an effect of 50% or more. Effects have a minus sign here. The list shows a part of the results.
The compounds below were run against human ether-à-go-go-related gene (hERG) potassium channel (human, UniProt Q12809) (assay: primary screen, population patch clamp on CHO cells stably expressing hERG).
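Note: peak tail current of the secondary pulse compared with the same well before compound.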

Chain of human ether-à-go-go-related gene (hERG) potassium channel (Q12809 whole entry, looked up): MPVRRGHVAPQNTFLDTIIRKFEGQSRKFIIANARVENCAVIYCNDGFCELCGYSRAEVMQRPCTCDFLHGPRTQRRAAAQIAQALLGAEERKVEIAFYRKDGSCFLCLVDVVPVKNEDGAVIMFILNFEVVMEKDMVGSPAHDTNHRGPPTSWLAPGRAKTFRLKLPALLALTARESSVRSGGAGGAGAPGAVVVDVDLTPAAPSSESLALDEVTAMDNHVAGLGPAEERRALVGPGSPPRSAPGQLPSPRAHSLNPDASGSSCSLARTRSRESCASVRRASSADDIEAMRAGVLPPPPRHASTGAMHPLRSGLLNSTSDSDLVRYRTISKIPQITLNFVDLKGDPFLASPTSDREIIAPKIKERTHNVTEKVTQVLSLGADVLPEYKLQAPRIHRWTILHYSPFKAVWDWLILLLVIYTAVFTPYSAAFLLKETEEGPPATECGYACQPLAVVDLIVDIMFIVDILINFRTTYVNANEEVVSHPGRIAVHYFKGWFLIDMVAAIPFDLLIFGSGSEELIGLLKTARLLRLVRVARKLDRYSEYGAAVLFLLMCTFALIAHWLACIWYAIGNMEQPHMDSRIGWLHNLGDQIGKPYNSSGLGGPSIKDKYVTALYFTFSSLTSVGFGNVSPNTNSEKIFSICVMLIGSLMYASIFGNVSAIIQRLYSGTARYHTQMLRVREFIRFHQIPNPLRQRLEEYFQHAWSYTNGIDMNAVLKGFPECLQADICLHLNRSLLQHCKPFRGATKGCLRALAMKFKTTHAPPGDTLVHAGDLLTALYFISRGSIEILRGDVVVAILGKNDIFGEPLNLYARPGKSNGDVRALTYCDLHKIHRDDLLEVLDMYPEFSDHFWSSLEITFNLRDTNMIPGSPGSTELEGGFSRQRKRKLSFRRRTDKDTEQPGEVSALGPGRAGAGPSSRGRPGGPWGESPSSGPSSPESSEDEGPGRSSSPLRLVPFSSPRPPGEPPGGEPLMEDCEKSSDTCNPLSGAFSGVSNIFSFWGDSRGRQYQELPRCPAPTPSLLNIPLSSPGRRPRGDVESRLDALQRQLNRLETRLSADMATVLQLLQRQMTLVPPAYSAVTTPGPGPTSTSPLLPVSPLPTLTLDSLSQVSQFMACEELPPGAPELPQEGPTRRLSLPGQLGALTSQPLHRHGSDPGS

SMILES	hERG current change (%, negative = inhibition) at 10uM [%]
CCOc1ccc(N(CC(=O)NCc2ccccc2)S(C)(=O)=O)cc1	-10.9
Cc1ccc2c(c1)N(CC(=O)NC1CCCc3ccccc31)C(=O)CO2 (centres unmarked)	-4.94
CCOC(=O)C1=C(O)C(=O)NC(c2ccccc2)=C(OCC)C1	0.866
COc1ccc(Oc2ncccc2NC(=O)c2cccc(C)c2C)cc1	-2.24
Cc1ccc2oc(=O)c3cnn(CC(=O)NC4CCN(Cc5ccccc5)CC4)c3c2c1	-43.8
CCCCC(=O)N1CCCC(C)C1 (centres unmarked)	25.8
CCC1Oc2ccccc2N(CC(=O)NCCN2C(C)CCCC2C)C1=O (centres unmarked)	-6.89
O=C(NCCC1CCCCN1S(=O)(=O)c1ccccc1)C(=O)NC1CCCC1 (centres unmarked)	-42.6
CC[C@@H](C)C(NC(=O)OC(C)(C)C)c1cn([C@@H](Cc2ccc(O)cc2)C(=O)N2CCN(C(=O)OC(C)(C)C)CC2)nn1 (some centres unmarked)	-70
COc1ccccc1CNC(=O)c1cc2c(s1)CS(=O)(=O)C2	10.3
O=C(N/N=C/c1ccco1)C1(O)c2ccccc2-c2ccccc21	10.6
O=C(Cc1ccccc1)N1CCC(c2ccccc2)C1 (centres unmarked)	4.65
COCCC(=O)N1CCC(Oc2ccc(C(=O)NCCn3cccn3)cc2)CC1	3.04
CC1=CCC(C(=O)O)(C(=O)N/N=C/c2cccs2)C(c2ccc([N+](=O)[O-])cc2)C1 (centres unmarked)	-13.2
Cc1cc(=O)[nH]c(Nc2cccc(Br)c2)n1	12.4
CN(c1ccccc1C(=O)Nc1ccc(CC#N)cc1)S(=O)(=O)c1ccccc1	-1.83
COc1ccc(S(=O)(=O)N2CCC(C(=O)NCCc3ccc4c(c3)OCO4)CC2)cc1	-43.2
O=C(N/N=C/C(Br)=C/c1ccccc1)c1cccnc1	-31.3
Cc1cc(NC(=O)CSc2nnc(-c3c[nH]c4ccccc34)n2-c2ccc(F)cc2)no1	14.2
O=C(Nc1cc(Cl)ccc1Cl)c1cc(-c2ccco2)on1	8.47
CCC(CO)[n+]1c(C)cc(/C=C2\Sc3ccccc3N2Cc2ccccc2)cc1C.[Br-] (centres unmarked)	-75.6
COc1ccc(-c2nc3cc(C)ccn3c2NC(=O)c2c(F)cccc2Cl)cc1	9.01

SMILES	hERG current change (%, negative = inhibition) at 10uM [%]
CCN1CCN(C(CNS(=O)(=O)c2ccc(Cl)cc2)c2cccnc2)CC1 (centres unmarked)	-74.2
O=C(Cc1ncc(C(F)(F)F)cc1Cl)NCc1ccco1	-0.471
CCC(CC)c1nnc(NC(=O)c2cc(C(=O)OC)cc([N+](=O)[O-])c2)s1	7.7
COc1cc(NC(=O)c2ccc(OC)c([N+](=O)[O-])c2)ccc1NC(=O)c1ccco1	-3
COc1cc(C(=O)Oc2ccccc2/C=N/NC(=O)c2ccc(Cl)cc2Cl)cc(OC)c1OC	0.683
Cl.Fc1ccc(Nc2nc(NCc3ccco3)c3ccccc3n2)cc1	-37.2
O=C(Nc1ccc(N2CCOCC2)c(Cl)c1)c1cccc(-n2cnnc2)c1	14.7
S=C(NCC1CCCO1)Nc1cccc(Cl)c1 (centres unmarked)	14
COc1ccc(Cl)cc1N/C(N)=N/c1nc(CSc2ccc(C)cc2)cc(=O)[nH]1	-1.9
C=CC(=O)NC1CC2CCC1(C)C2(C)C (centres unmarked)	7.01
Cc1cc(C)cc(C(=O)NCCN2CCOCC2)c1	10.6
Cc1c(NC(=O)C2CCCN(S(=O)(=O)c3cnc[nH]3)C2)c(=O)n(-c2ccccc2)n1C (centres unmarked)	20.3
CC(C)c1ccc(NC(=O)Cn2ncc3ccccc32)cc1	11.7
Cc1cccc(C(=O)NC(C)C(c2cccs2)N2CCOCC2)c1 (centres unmarked)	5.25
COCCN1C(=O)C(=O)/C(=C(/O)c2ccc(OC(C)C)cc2)C1c1cccnc1 (centres unmarked)	7.45
O=C(CCCc1nc2ccccc2s1)NCc1ccccc1	-8.92
O=C(CNC(=O)c1ccccc1F)N/N=C/c1cc(Br)ccc1OCc1ccccc1	-3.96
Cc1cc(NC(=O)c2ccc(Br)cc2)nc(C)n1	1
COCc1nc2ccccc2n1CCCOc1ccccc1	-23
CC(C)CCc1noc(CN(C)CC2CCN(Cc3ccccc3)CC2)n1	-47.1
COC(=O)CCn1nnc(-c2cccs2)n1	-6.21
NC(=O)[C@@H]1CCCN1Cc1nc(-c2cccs2)no1	-0.852

SMILES	hERG current change (%, negative = inhibition) at 10uM [%]
Nc1ccc(SCCN2C(=O)c3ccccc3C2=O)cc1	-1.22
COc1ccc(Cn2nnnc2CN2CCC(c3nc4ccccc4s3)CC2)cc1	-30.1
CN1/C(=C\C(=S)NC(=O)c2ccc([N+](=O)[O-])cc2)C(C)(C)c2ccccc21	24.9
COC(=O)[C@@]1(Cc2ccc(F)cc2)[C@H]2c3cc(C(=O)N4CCCC4)n(CCCNc4ncc(C(F)(F)F)cc4Cl)c3C[C@H]2CN1C(=O)c1ccccc1	0.874
S=c1[nH]c2ccc(Cc3ccc4[nH]c(=S)[nH]c4c3)cc2[nH]1	21.5
FC(F)(F)c1cccc(CN2CCSCC2)c1	11.9
CC/C(=N/NC(=O)c1ccccc1O)c1c(C)[nH]n(-c2ccccc2)c1=O	6.17
COc1ccc(NC(=O)COc2cc(C)cc(C)c2)cc1S(=O)(=O)N1CCCCC1	-1.32
Cc1nn(-c2cc(Cl)ccc2N)c(=O)c2ccccc12	-31.5
CCc1cc(=O)oc2cc(C)cc(OCC(=O)NCc3ccccn3)c12	-40
CN(C(=O)c1cccc(C#CC(C)(C)O)c1)C1CCCN(Cc2ccccc2F)C1 (centres unmarked)	6.94
C=CCn1c(SCC(=O)Nc2ccc3c(c2)OCO3)nc2ccccc2c1=O	-3.64
CC(=O)NC(C)c1ccc(C(=O)CSc2nnc(C3CC3)n2C2CC2)cc1 (centres unmarked)	0.712
Cc1cc(C(=O)N/N=C/c2c(C)nn(-c3ccccc3)c2C)c(C)o1	3.8
Cc1nc2c(C(=O)NCc3cccs3)cnn2c(C)c1Cc1ccc(F)cc1	-13
CCC(Oc1ccccc1C)C(=O)Nc1ccc(S(=O)(=O)Nc2cc(C)on2)cc1 (centres unmarked)	3.34
O=C(NC1=NCCS1)c1ccccc1F	0.721
CCCCCCS(=O)Cc1ccccc1 (centres unmarked)	-5.45
CC(C)(C)OC(=O)CNC(=O)c1[nH]cnc1C(=O)Nc1ccc(CNC(=O)OC(C)(C)C)cc1	-0.221
O=C(O)CC(Cc1ccc(Br)cc1)C(=O)Nc1ccccc1 (centres unmarked)	0.801
CCc1ccc(-c2csc3ncn(CC(=O)N4CCOCC4)c(=O)c23)cc1	-14.3
CS/C(N)=N/N=C/c1cc(C)ccc1O	4.28

SMILES	hERG current change (%, negative = inhibition) at 10uM [%]
Cc1ccc2c(C)nc(Nc3ncc4c(n3)CCCC4=O)nc2c1	-12.4
COc1cccc(C2Nc3ccc4ccccc4c3C3=C2C(=O)CCC3)c1O (centres unmarked)	23.5
CCN(CC(=O)Nc1ccc(NC(C)=O)cc1)C(=O)CSC(c1ccccc1)c1ccccc1	-11.2
CCS(=O)(=O)N1Cc2ccccc2CC1C(=O)Nc1nnc(SCc2ccc(C#N)cc2)s1 (centres unmarked)	-8.26
C/C(=N\Nc1nc(C)cc(-c2ccccc2)n1)c1ccc(F)cc1	16.6
CC1CCCCN1S(=O)(=O)c1ccc(S(=O)(=O)N2CCN(c3ccccc3)CC2)cc1 (centres unmarked)	-5.68
CC(=C/c1ccc(C(C)C)cc1)/C=N/NC(=O)Cn1nc(C)cc1C	11.1
CC(C)Cc1ccc(S(=O)(=O)NCC2CCCO2)cc1 (centres unmarked)	5.89
CCCC(C(=O)Nc1ccc(C)c(S(=O)(=O)N2CCOCC2)c1)c1ccccc1 (centres unmarked)	-47.7
CC(C)CCNC(=O)C1CC2Cn3c(nc4cc(Cl)c(Cl)cc43)C2N1C (centres unmarked)	-56
CCOC(=O)c1c(-c2ccco2)csc1NC(=O)CSc1nnc(N)s1	0.206
CC(Sc1nnc(C(F)(F)F)n1C)C(=O)Nc1ccc(S(N)(=O)=O)cc1 (centres unmarked)	-20.9
Cn1ccc(C(=O)Nc2ccc3c(c2)OCCO3)n1	21.9
O=c1[nH]c2ccccc2c2cn(-c3ccccc3)nc12	21.1
COc1ccc(C2CC(c3c(Cl)cccc3Cl)n3nc(N)nc3N2)cc1 (centres unmarked)	0.0331
COc1ccc(-c2cc(N3C(=O)Nc4ccccc4N3O)n[nH]2)c(OC)c1	7.27
O=C(NCc1ccccc1)c1onc(CSc2ccc(F)cc2)c1C(=O)NCCCN1CCOCC1	-73.9
COc1ccc(-n2ccc(-c3nn(-c4cccc(C(F)(F)F)c4)ccc3=O)n2)cc1	-45.7
CCOC(=O)c1ccc(NCC(O)COc2ccccc2)cc1 (centres unmarked)	-20.4
COC(=O)c1ccccc1NC(=O)NCCc1ccccc1OC.Cl	16.1

Source: article PMC4336329 (PLoS ONE, 2015)
